Scores with a large standard error are left out. Not listed are two conditions whose scores span a narrow range. Read del as a deletion of the residues named and ins as an insertion between two positions. For part of these data: The data file names ogerin without a concentration.
B1: GPR68, Q15743 (parent)
chain: MGNITADNSSMSCTIDHTIHQTLAPVVYVTVLVVGFPANCLSLYFGYLQIKARNELGVYLCNLTVADLFYICSLPFWLQYVLQHDNWSHGDLSCQVCGILLYENIYISVGFLCCISVDRYLAVAHPFRFHQFRTLKAAVGVSVVIWAKELLTSIYFLMHEEVIEDENQHRVCFEHYPIQAWQRAINYYRFLVGFLFPICLLLASYQGILRAVRRSHGTQKSRKDQIQRLVLSTVVIFLACFLPYHVLLLVRSVWEASCDFAKGVFNAYHFSLLLTSFNCVADPVLYCFVSETTHRDLARLRGACLAFLTCSRTGRAREAYPLGAPEASGKSGAQGEEPELLTKLHPAFQTPNSPGSGGFPTGRLA

Legend:
[1] = variants of: B1; assay: cAMP reporter score (Enrich2 score, wild type = 0); higher = more signal; HEK293T, FACS bins
[2] = variants of: B1; assay: surface expression score (Enrich2 score, wild type = 0); higher = more signal; HEK293T, FACS bins

Variant | cAMP reporter score ([1]; pH 5.5) | cAMP reporter score ([1]; pH 6) | cAMP reporter score ([1]; pH 6, modulator: ogerin) | cAMP reporter score ([1]; pH 6.5, modulator: ogerin) | surface expression score [2]
Q334M | 0.114 | 0.511 | -0.168 | -0.646 | 0.909
Q334N | -0.669 | 0.769 | -0.226 | 0.499 | -0.336
Q334P | 0.139 | -0.117 | 0.382 | 0.933 | 0.893
Q334R | 1.93 | 0.191 | 1.34 | 1.38 | 0.819
Q334S | 0.637 | 0.563 | 0.48 | 0.423 | 0.796
Q334T | -0.31 | 0.15 | 0.09 | 0.259 | 0.47
Q334V | 0.627 | 0.738 | 0.124 | 0.052 | 1.08
Q334W | 1.26 | -0.483 | 0.893 | 0.669 | 0.205
Q334_G335insGSG | 0.889 | 1.13 | 1.02 | 0.92 | 1.06
G335_E336insGSG | 0.393 | -0.272 | 0.461 | 0.404 | 0.651
G335_E337del | 0.964 | -0.256 | 0.742 | 1.13 | 0.307
E336A | 1.45 | -0.176 | 1.95 | 1.67 | 0.993
E336C | 0.839 | -0.053 | 0.978 | 1.06 | -0.338
E336D | -0.524 | 0.722 | -0.406 | -0.534 | -0.421
E336F | 0.693 | -0.255 | 1.29 | 0.887 | 0.298
E336G | 1.15 |  | 0.014 | -0.933 | -0.369

Variant | cAMP reporter score ([1]; pH 5.5) | cAMP reporter score ([1]; pH 6) | cAMP reporter score ([1]; pH 6, modulator: ogerin) | cAMP reporter score ([1]; pH 6.5, modulator: ogerin) | surface expression score [2]
E336H | 0.568 | 1.38 | 1.82 | 0.166 | 0.332
E336I | 0.111 | 0.044 | 0.233 | 0.116 | 0.763
E336K | 0.257 | 0.289 | 0.036 | -0.046 | -0.049
E336L | 0.995 |  | 1.53 | 0.981 | -0.031
E336M | 0.009 | 0.462 | 0.305 | -0.127 | -0.794
E336N | 0.263 | 0.028 | 0.626 | 0.387 | -0.281
E336P | 0.807 | -0.674 | 0.645 | 1.06 | 0.39
E336Q | 0.546 | 0.063 | 0.899 | -0.199 | 0.627
E336R | 0.622 | 0.166 | 1.37 | 0.148 | 0.458
E336S | -0.582 |  | 0.003 |  | -0.135
E336T | -0.497 | 1.58 | 0.525 | 1.43 | 0.183
E336V | 0.768 | -1 | 0.203 | 0.891 | -0.186
E336W | -0.771 | 0.016 | -0.338 | -0.486 | -0.364
E336Y | 0.226 | -0.405 | 0.284 | -0.122 | -0.585
E336_E337del | 1.58 |  | 0.483 | 1.69 | -0.323

Reference: the GPR68 mutational scans of Howard et al. (2025)
